The other results are listed elsewhere or left out.

The test concerns HepG2. Put plainly: cytotoxicity call (relative viability < 0.9). The following applies: 10 µM.
As to `C[C@@H]1CCCCO[C@@H](CN(C)C(=O)Nc2ccccc2)[C@H](C)CN([C@@H](C)CO)C(=O)c2cc(NC(=O)c3ccncc3)ccc2O1`, the cytotoxicity call was “inactive”.
Regarding `C[C@@H]1CN([C@H](C)CO)C(=O)c2cc(NS(=O)(=O)c3cn(C)cn3)ccc2O[C@@H]1CN(C)Cc1ccc(C(=O)Nc2ccccc2N)cc1`, the cytotoxicity call is “inactive”.
Take `COc1ccc(NC(=O)Nc2ccc3c(c2)C(=O)N([C@H](C)CO)C[C@H](C)[C@@H](CN(C)C(=O)Nc2cccc4ccccc24)OCCCC[C@@H](C)O3)cc1`: the cytotoxicity call was “inactive”.
In the case of `Cc1ccc(S[C@]2(C(=O)NCc3ccccc3)CC(=O)N(Cc3ccccc3)[C@@H]2c2ccc(COC(=O)NCCCCCC(=O)NO)cc2I)cc1`, the cytotoxicity call was “inactive”.
With `Cc1ccc(S(=O)(=O)Nc2cccc3c2O[C@@H](CN(C)Cc2ccc(-c4ccccc4)cc2)[C@@H](C)CN([C@@H](C)CO)C3=O)cc1`, the cytotoxicity call was “inactive”.
As for `Cc1noc(C)c1S(=O)(=O)Nc1ccc2c(c1)C(=O)N([C@@H](C)CO)C[C@H](C)[C@@H](CN(C)C(=O)Nc1ccccc1)OCCCC[C@H](C)O2`, the cytotoxicity call is “inactive”.
The value for `OCC(O)C(O)C(O)C(O)C(O)CO` (stereo not given) was “inactive”.
On to `C[C@@H]1CN([C@@H](C)CO)C(=O)c2cc(NC(=O)Nc3ccc(C(F)(F)F)cc3)ccc2O[C@@H]1CN(C)Cc1ccccc1`, for which the cytotoxicity call was “active”.
For the compound `CC(C)NC(=O)Nc1ccc2c(c1)C(=O)N([C@H](C)CO)C[C@H](C)[C@@H](CN(C)S(=O)(=O)c1cccs1)O2`, the cytotoxicity call was “inactive”.
Take `C[C@H](C(=O)N(C)C[C@H]1OCc2ccccc2-c2c(n(C)c3ccccc23)C(=O)N([C@@H](C)CO)C[C@@H]1C)c1ccccc1`: the cytotoxicity call is “active”.
